Measurements published in patent publication EP2161029A1, “Composition comprising peptides” (Unilever N.V., priority 2008, dated 2010).
pIC50: −log10 of the molar value. At least one peptide structure holds a part that was inferred or is arguable (an end, a ring closure or a residue). Some entries repeat one wording, which the source may state once for all of them. Peptide text beside a SMILES is read from it.

Test system: ACE
Experiment: ACE inhibition, HPLC-UV at-line assay with substrate HHL
Assay type: biochemical
Conditions: for residual ACE activity (in % of control): substrate Hippuryl-His-Leu, at-line HPLC-UV assay, mean

Row | Compound | residual ACE activity (in % of control) (20 µM dipeptide) | residual ACE activity (in % of control) (200 µM dipeptide) | pIC50 (dipeptide 2.5 - 500 µM, substrate Hip-His-Leu (1 mM), n=2, read-out: IC50 means ± SE) | ACE inhibitory activity (in words) (in vitro and in silico)
1 | CSCC[C@H](NC(=O)[C@H](C)N)C(=O)O [AM] (H-Ala-Met-OH) | 95.7 % of control | 88.80 % of control |  | 
2 | C[C@H](N)C(=O)N[C@@H](CC(N)=O)C(=O)O [AN] (H-Ala-Asn-OH) | 97.2 % of control | 99.05 % of control |  | 
3 | C[C@H](N)C(=O)N[C@@H](CCCNC(=N)N)C(=O)O [AR] (H-Ala-Arg-OH) | 87.8 % of control | 67.95 % of control |  | 
4 | C[C@H](N)C(=O)N[C@@H](CO)C(=O)O [AS] (H-Ala-Ser-OH) | 95.4 % of control | 84.75 % of control |  | 
5 | C[C@H](N)C(=O)N[C@@H](Cc1c[nH]c2ccccc12)C(=O)O [AW] (H-Ala-Trp-OH) | 74.4 % of control | 30.50 % of control |  | 
6 | NCCCC[C@H](NC(=O)[C@@H](N)CC(=O)O)C(=O)O [Asp-Lys] (H-Asp-Lys-OH) |  |  | 3.29 | 
7 | N[C@@H](CS)C(=O)N[C@@H](CS)C(=O)O [CC] (H-Cys-Cys-OH) | 59.6 % of control | 2.70 % of control |  | 
8 | N[C@@H](CS)C(=O)N[C@@H](Cc1ccccc1)C(=O)O [CF] (H-Cys-Phe-OH) | 98.7 % of control | 52.35 % of control |  | 
9 | N[C@@H](CS)C(=O)NCC(=O)O [CG] | 98.9 % of control | 32.95 % of control |  | 
10 | NCCCC[C@H](NC(=O)[C@@H](N)CS)C(=O)O [CK] (H-Cys-Lys-OH) | 94.1 % of control | 88.80 % of control |  | 
11 | NC(=O)C[C@H](NC(=O)[C@@H](N)CS)C(=O)O [CN] (H-Cys-Asn-OH) | 100.0 % of control | 36.25 % of control |  | 
12 | C[C@@H](O)[C@H](NC(=O)[C@@H](N)CS)C(=O)O [CT] (H-Cys-Thr-OH) | 100.0 % of control | 34.70 % of control |  | 
13 | N[C@@H](CS)C(=O)N[C@@H](Cc1c[nH]c2ccccc12)C(=O)O [CW] (H-Cys-Trp-OH) | 99.4 % of control | 64.15 % of control |  | 
14 | N[C@@H](CC(=O)O)C(=O)N[C@@H](CCC(=O)O)C(=O)O [DE] (H-Asp-Glu-OH) | 75.1 % of control | 60.45 % of control |  | 
15 | CC[C@H](C)[C@H](NC(=O)[C@@H](N)CC(=O)O)C(=O)O [DI] (H-Asp-Ile-OH) | 72.3 % of control | 55.65 % of control |  | 
16 | CC(C)C[C@H](NC(=O)[C@@H](N)CC(=O)O)C(=O)O [DL] (H-Asp-Leu-OH) | 70.5 % of control | 51.50 % of control |  | 
17 | N=C(N)NCCC[C@H](NC(=O)[C@@H](N)CC(=O)O)C(=O)O [DR] (H-Asp-Arg-OH) | 49.8 % of control | 52.55 % of control |  | 
18 | C[C@@H](O)[C@H](NC(=O)[C@@H](N)CC(=O)O)C(=O)O [DT] (H-Asp-Thr-OH) | 68.3 % of control | 68.50 % of control |  | 
19 | CC(C)[C@H](NC(=O)[C@@H](N)CC(=O)O)C(=O)O [DV] (H-Asp-Val-OH) | 67.0 % of control | 68.70 % of control |  | 
20 | N[C@@H](CC(=O)O)C(=O)N[C@@H](Cc1c[nH]c2ccccc12)C(=O)O [DW] (H-Asp-Trp-OH) | 39.8 % of control | 58.00 % of control |  | ACE inhibitory activity
21 | N[C@@H](CCC(=O)O)C(=O)N[C@@H](CS)C(=O)O [EC] (H-Glu-Cys-OH) | 77.8 % of control | 42.65 % of control |  | 
22 | N[C@@H](CCC(=O)O)C(=O)N[C@@H](CC(=O)O)C(=O)O [ED] (H-Glu-Asp-OH) | 75.6 % of control | 79.30 % of control |  | 
23 | N[C@@H](CCC(=O)O)C(=O)N[C@@H](CCC(=O)O)C(=O)O [EE] (H-Glu-Glu-OH) | 78.7 % of control | 79.10 % of control |  | 
24 | CC[C@H](C)[C@H](NC(=O)[C@@H](N)CCC(=O)O)C(=O)O [EI] (H-Glu-Ile-OH) | 80.6 % of control | 65.40 % of control |  | 
25 | CSCC[C@H](NC(=O)[C@@H](N)CCC(=O)O)C(=O)O [EM] (H-Glu-Met-OH) | 68.9 % of control | 61.80 % of control |  | 
